# Reference: PubChem BioAssay AID488969 (Vanderbilt High Throughput Screening Facility, 2010)
# The full ranking holds about 110,000 compounds; the median of “z-score” is about -0.1, and the highest 2% start at about 2. The list shows a part of the results. Active and inactive are the calls of the source.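 How the source made its calls: active means z-score in the third read window above 3 or below -3; inactive means the rest.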
# Target: Metabotropic glutamate receptor 8 (Rattus norvegicus) (UniProt P70579)
# UniProt P70579, sequence (P70579 whole entry, looked up): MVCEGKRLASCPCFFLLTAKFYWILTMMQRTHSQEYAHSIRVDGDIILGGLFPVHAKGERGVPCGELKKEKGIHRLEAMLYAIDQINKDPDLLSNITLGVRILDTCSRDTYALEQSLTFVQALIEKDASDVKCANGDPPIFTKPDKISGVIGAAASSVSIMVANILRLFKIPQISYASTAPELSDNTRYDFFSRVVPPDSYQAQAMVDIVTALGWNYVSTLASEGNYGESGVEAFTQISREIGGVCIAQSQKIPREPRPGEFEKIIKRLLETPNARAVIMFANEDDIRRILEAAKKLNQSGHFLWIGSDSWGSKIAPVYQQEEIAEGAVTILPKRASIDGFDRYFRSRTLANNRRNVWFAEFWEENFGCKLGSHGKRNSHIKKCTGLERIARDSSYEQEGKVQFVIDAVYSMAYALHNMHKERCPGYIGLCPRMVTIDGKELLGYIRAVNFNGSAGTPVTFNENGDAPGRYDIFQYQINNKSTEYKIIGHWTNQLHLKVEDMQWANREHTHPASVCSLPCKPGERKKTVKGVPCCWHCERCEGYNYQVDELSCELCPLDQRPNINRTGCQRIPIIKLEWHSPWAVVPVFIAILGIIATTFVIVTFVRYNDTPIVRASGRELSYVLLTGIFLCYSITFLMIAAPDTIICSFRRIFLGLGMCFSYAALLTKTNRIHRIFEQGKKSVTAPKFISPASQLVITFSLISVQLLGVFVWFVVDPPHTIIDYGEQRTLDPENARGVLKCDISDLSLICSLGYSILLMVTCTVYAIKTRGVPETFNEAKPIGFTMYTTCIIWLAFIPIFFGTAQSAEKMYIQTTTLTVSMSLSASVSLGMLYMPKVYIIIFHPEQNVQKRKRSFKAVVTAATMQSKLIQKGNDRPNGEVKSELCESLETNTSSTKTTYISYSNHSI
# Assay: mGluR8 Gi/Go-coupled signaling modulation – cell-based, rat, thallium flux, HTS, primary screen (AID 488969)
# Details: HEK293 rat mGluR8, GIRK (G protein-gated inwardly rectifying potassium channel) thallium flux, FluoZin2; at 10 µM; stronger effect = higher value; submaximal glutamate (EC20) added with thallium
row,Structure (SMILES),z-score
1,COC(=O)c1cccc(NC(=O)C2C3CCC(C3)C2C(=O)O)c1 (stereo not given),-0.265
2,Cc1nc(SCC(=O)Nc2nc3ccccc3s2)c(C#N)c(C)c1C,-0.047
3,COc1cc2c(cc1OC)C(c1cc3cc4c(cc3[nH]c1=O)OCO4)N(C(=O)C1CC1)CC2 (stereo not given),-0.0712
4,CN1C(=O)C2(NCCc3c2[nH]c2ccccc32)c2ccccc21 (stereo not given),-1.03
5,CSc1ccc(-c2cc(=O)c3ccccc3o2)cc1,-0.465
6,CC1(C)NC(=O)N(CC(O)CN2CCCC2)C1=O (stereo not given),0.131
7,Cc1ccc(N2CC(C(=O)Nc3ccccn3)CC2=O)cc1 (stereo not given),0.165
8,CCOc1ccc(S(=O)(=O)n2ccc(C)n2)c2ccccc12,0.487
9,CC(=O)N1CCc2ccc(C(=O)CN3CCN(c4cccc(C)c4C)CC3)cc21,-0.378
10,O=C(NC1CCCCC1)c1cc(Cl)nc2ccccc12,-0.135
11,CCOC(=O)c1c(-c2ccc(C)s2)csc1NC(=O)c1cccs1,0.24
12,CCCCC(c1nnnn1CC1CCCO1)N1CCN(Cc2ccccc2)CC1 (stereo not given),-0.127
13,CC1(C)Cc2nc3sc4c(SCC(=O)NCc5ccco5)ncnc4c3cc2CO1,-0.999
14,O=C1CCCC2=C1C(c1ccc(Cl)cc1)n1c(s/c(=C\c3ccc4ccncc4c3)c1=O)=N2 (stereo not given),-0.209
15,CCn1c(SC(C)C)nnc1-c1cc(-c2ccccc2)sc1N,-0.246
16,O=C(NCCOc1ccccc1Cl)c1cc(F)c(F)cc1Cl,-0.0579
17,CCCCn1c2c(c(=N)c3c1CCC3)CCC2,-0.000682
18,CN(C)c1ccc(/C=N/N=C2/NC(=O)/C(=C/c3ccc([N+](=O)[O-])cc3)S2)cc1,0.0976
19,CCCCCC(=O)Nc1ccc(C(=O)N/N=C/c2ccc([N+](=O)[O-])cc2)cc1,0.145
20,CC(C)OCCCNC(=S)Nc1ccc(S(N)(=O)=O)cc1,0.0754
21,COc1ccc(C(=O)c2c(C)oc3cc([N+](=O)[O-])c(O)c([N+](=O)[O-])c23)cc1,0.0624
22,CCn1c(SCC(=O)N2CCc3ccccc32)nnc1-c1ccco1,-0.164
23,Cc1ccccc1OCc1nc2ccccc2c(=O)n1/N=C/c1cn[nH]c1-c1ccc(Br)cc1,-0.306
24,CSc1ccccc1NC(=O)CSCc1ccc(Br)cc1,-0.146

row,Structure (SMILES),z-score
1,O=C(Nc1ccccc1)c1ccc(Nc2c([N+](=O)[O-])cc([N+](=O)[O-])c3ccccc23)cc1,-0.265
2,O=C(Nc1ccc([N+](=O)[O-])cc1)C1CC1(c1ccccc1)c1ccccc1 (stereo not given),0.135
3,COc1ccc(OC)c(NC(=O)c2c3c(nc4ccccc24)CCC3)c1,-0.428
4,COCCn1c(C)c(C(=O)O)sc1=S,-0.353
5,CC1CN(C(=O)/C=C/c2cccc([N+](=O)[O-])c2)CC(C)O1 (stereo not given),-0.164
6,C=CCn1c(=NC(=O)c2ccco2)sc2cc(C(=O)OCC)ccc21,-0.0278
7,CCOc1cc(C2C(C#N)=C(N)Oc3n[nH]c(-c4ccccc4)c32)ccc1O (stereo not given),-0.392
8,Cc1cc(C)nc(/N=C(/NC(=O)Nc2ccc(Cl)c(Cl)c2)Nc2cccc(Cl)c2)n1,0.564
9,COCc1cc(C)nc(Nc2ccc(C)c(C)c2)c1C#N,1.01
10,CC(=O)Nc1c(C(=O)O)[nH]c2ccccc12,-0.038
11,CCOC(=O)c1nnn(-c2ccccc2)c1C,0.0748
12,C=CCn1c(=O)c2ccccc2n2c(SCC(=O)Nc3cc(C)on3)nnc12,-0.737
13,COc1cccc(NC(=O)C(NCCC(C)C)c2ccccc2)c1 (stereo not given),-0.531
14,CCN1CCN(c2nc(Nc3cccc(C)c3)nc(N)c2[N+](=O)[O-])CC1,0.231
15,CC(C)n1c(SC2CCOC2=O)nc2ccccc21 (stereo not given),-1.44
16,Cc1ccc(OCC(=O)NNC(=O)c2cccnc2)cc1,0.0457
17,O=C1CCCc2c1[nH]c1ccccc21,0.864
18,C=CCN1C(=O)/C(=N/n2cnnc2)c2ccccc21,-0.415
19,Cc1ccc(NC(=O)c2ccc(Nc3c([N+](=O)[O-])cc([N+](=O)[O-])cc3[N+](=O)[O-])cc2)cc1,-0.158
20,CCn1c(SCC(=O)NCc2ccc3c(c2)OCO3)nnc1-c1c[nH]c2ccccc12,0.897
21,COc1ccc(N2CCN(CCCn3c(=S)[nH]c4ncccc4c3=O)CC2)cc1,1.62
22,CN(C)CCCOC(=O)CCc1ccccc1,1.03
23,Cc1ccc(N(Cc2ccc(C(=O)NN=C3CCN(C)CC3)cc2)S(C)(=O)=O)cc1C,0.0756
24,CC(=O)Nc1ccc(-n2c(C)nc(=O)c(-c3ccccc3)c2C)cc1,-0.224

row,Structure (SMILES),z-score
1,O=C(c1ccc(Cl)c(Cl)c1)c1cc(-c2ccccn2)c(N2CCOCC2)s1,-0.0956
2,CCC(=O)c1cn(CC(=O)NCc2cccnc2)c2ccccc12,-0.0962
3,COc1ccccc1NC(=O)CNc1ccc(F)c(Cl)c1,-0.632
4,Cc1cccc2c1NC(C)CC2C (stereo not given),-0.214
5,CCN1CCCC1CNC1=NCCCCC1 (stereo not given),-0.206
6,CC(=O)Oc1ccc2c(c1)Oc1cc(OC(C)=O)ccc1C21OC(=O)c2ccccc21,-0.947
7,Cc1ccc2c(CC(=O)OCc3csc(C)n3)coc2c1,0.595
8,Cc1cc(Cl)c(S(=O)(=O)NC(C(=O)O)c2ccccc2)cc1OCC(N)=O (stereo not given),-1.26
9,CCOC(=O)c1c(C)oc2c(CN3CCN(C)CC3)c(Br)c(OC)c(O)c12,-0.824
10,O=C(Nc1cccc2nsnc12)C1CC(=O)N(c2ccccc2)C1 (stereo not given),0.207
11,CC1CCC(n2c(=S)[nH]c3ccccc3c2=O)CC1 (stereo not given),active: 8.55
12,O=C(COc1ccc(Cl)cc1)Nc1ccccc1N1CCOCC1,0.0635
13,CC1CCN(c2nnc(-c3cccs3)c3ccccc23)CC1,-0.286
14,O=C(COC(=O)CCC(=O)c1cccs1)Nc1ncc(Cl)cc1Cl,-0.28
15,C/C(=N\NC(=O)c1ccc(Cl)c(Cl)c1)c1cccc(NC(=O)C(C)C)c1,0.0284
16,CCN(CC)c1ccc(C=Nc2ccc(N(C)C)cc2)c(O)c1,0.0964
17,O=C(/C=C/c1ccccc1Cl)NCCc1ccc(F)cc1,0.976
18,CN(CCCC(=O)Nc1nccs1)S(=O)(=O)c1ccc(Cl)cc1,1.43
19,CC(=O)C(Cc1cnc(Cl)s1)(Cc1cnc(Cl)s1)C(C)=O,0.0841
20,COc1cccc(NC(=O)COc2c(F)c(F)c(C(F)(F)F)c(F)c2F)c1,1.2
21,COc1cc(OC)cc(C(=O)Oc2ccc(/C=N/Nc3nc4ccccc4s3)cc2OC)c1,-0.292
22,CC(=O)NC1(c2nnnn2CCOC(=O)Nc2ccc(Cl)cc2)CCCCC1,0.0804
